# Source: the supplement of paper PMC7826260
# Some of the results follow. Each Rep nickase domain was tested in vitro on the same pool of single strands for 1 h at 37 °C with 3 µM enzyme; only the middle of the 90-letter strands is printed. Values are log2 of uncut reads against the no-enzyme pool; strong cutting gives strongly negative numbers. There is no active / inactive call. Shares of all reads are compared, so uncut sequences can rise above 0 when many others are cut.
# Legend:
# Experiment in all cases: uncleaved DNA left, log2 of reads against the no-enzyme library (log2 ratio); higher = less cleavage (more negative = more Rep cleavage of the k-mer); sequences stand for … in CTCGTCCG…ACCGGAGA
# [1] = system: T1, Rep nickase domain of Muscovy duck circovirus
# T1 sequence (Rep 1-111, printed without the tag): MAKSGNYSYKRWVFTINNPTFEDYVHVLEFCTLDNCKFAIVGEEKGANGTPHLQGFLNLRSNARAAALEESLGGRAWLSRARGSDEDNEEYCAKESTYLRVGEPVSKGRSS
# Method: (§1)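 A pool of 90-nt single-stranded DNAs with seven random bases just before the constant AC of the nick site (name = the seven bases) was cut by 3 µM recombinant His6-SUMO-tagged Rep nickase domain (300 nM DNA, 50 mM HEPES pH 8.0, 50 mM NaCl, 1 mM MnCl2, 1 h, 37 °C, three replicates). Uncut DNA was amplified and sequenced.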
# [2] = system: T2, Rep nickase domain of banana bunchy top virus
# T2 sequence (Rep 1-94, printed without the tag): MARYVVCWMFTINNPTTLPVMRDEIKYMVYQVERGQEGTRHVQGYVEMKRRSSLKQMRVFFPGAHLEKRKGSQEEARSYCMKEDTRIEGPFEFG
# Method: as §1
# [3] = system: T3, Rep nickase domain of cabbage leaf curl virus
# T3 sequence (Rep 1-116, printed without the tag): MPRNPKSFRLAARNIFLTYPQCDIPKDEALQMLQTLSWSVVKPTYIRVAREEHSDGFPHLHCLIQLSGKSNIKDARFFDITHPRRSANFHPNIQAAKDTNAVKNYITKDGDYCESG
# Method: as §1
# [4] = system: T4, Rep nickase domain of chickpea chlorotic dwarf virus
# T4 sequence (Rep 1-124, printed without the tag): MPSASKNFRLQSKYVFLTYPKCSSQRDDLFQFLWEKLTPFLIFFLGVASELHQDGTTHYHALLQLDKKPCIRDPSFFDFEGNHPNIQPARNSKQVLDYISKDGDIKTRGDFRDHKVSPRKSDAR
# Method: as §1
# [5] = system: T5, Rep nickase domain of faba bean necrotic yellows virus
# T5 sequence (Rep 1-98, printed without the tag): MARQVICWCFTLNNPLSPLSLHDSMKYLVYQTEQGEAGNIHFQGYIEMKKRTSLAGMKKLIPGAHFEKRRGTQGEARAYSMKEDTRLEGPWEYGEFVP
# Method: as §1
# [6] = system: T6, Rep nickase domain of maize striate mosaic virus
# T6 sequence (Rep 1-117, printed without the tag): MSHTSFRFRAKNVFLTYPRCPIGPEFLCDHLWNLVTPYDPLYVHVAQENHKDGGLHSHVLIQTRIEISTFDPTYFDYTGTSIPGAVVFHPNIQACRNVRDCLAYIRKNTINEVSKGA
# Method: as §1
# [7] = system: T7, Rep nickase domain of porcine circovirus 2
# T7 sequence (Rep 2-116, printed without the tag): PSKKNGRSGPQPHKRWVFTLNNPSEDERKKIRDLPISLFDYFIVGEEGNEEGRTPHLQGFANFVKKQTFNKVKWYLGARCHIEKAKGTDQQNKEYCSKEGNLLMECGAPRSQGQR
# Method: as §1
# [8] = system: T8, Rep nickase domain of tomato golden mosaic virus
# T8 sequence (Rep 1-124, printed without the tag): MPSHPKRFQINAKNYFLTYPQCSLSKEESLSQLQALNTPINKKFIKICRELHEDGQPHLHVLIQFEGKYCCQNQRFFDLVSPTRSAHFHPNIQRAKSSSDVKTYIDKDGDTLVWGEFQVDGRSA
# Method: as §1
# [9] = system: T9, Rep nickase domain of tomato yellow leaf curl virus
# T9 sequence (Rep 1-136, printed without the tag): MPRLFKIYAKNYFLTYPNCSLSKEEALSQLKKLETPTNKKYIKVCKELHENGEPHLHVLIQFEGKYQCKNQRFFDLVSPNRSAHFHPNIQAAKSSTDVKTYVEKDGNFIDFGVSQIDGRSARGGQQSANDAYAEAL
# Method: as §1
# [10] = system: T10, Rep nickase domain of wheat dwarf virus
# T10 sequence (Rep 1-137, printed without the tag): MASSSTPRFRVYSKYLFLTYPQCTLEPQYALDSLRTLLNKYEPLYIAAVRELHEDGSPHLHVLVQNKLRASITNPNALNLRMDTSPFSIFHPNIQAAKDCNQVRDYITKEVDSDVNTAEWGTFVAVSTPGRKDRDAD
# Method: as §1
Sequence,uncleaved DNA left (log2) [1],uncleaved DNA left (log2) [2],uncleaved DNA left (log2) [3],uncleaved DNA left (log2) [4],uncleaved DNA left (log2) [5],uncleaved DNA left (log2) [6],uncleaved DNA left (log2) [7],uncleaved DNA left (log2) [8],uncleaved DNA left (log2) [9],uncleaved DNA left (log2) [10]
ACAGCAA,0.00446,0.0748,-0.337,-0.465,0.168,-1.03,0.0515,-0.00258,-0.0046,-0.0281
GGAACAT,0.0331,0.128,0.97,2.23,0.00991,2.37,0.195,0.106,0.00842,0.245
CAGTCTC,-0.136,-0.438,-0.3,-0.326,-0.53,-0.058,-3.34,-0.2,-0.118,-0.164
CGAAATT,0.199,0.0892,0.0592,-1.85,0.0874,-0.509,-0.643,0.0856,0.175,0.0789
GGTATTT,-0.0305,0.0257,0.484,0.883,-0.145,1.82,-0.253,-0.0666,0.0176,0.0763
AACGAAA,0.0201,0.0745,-0.0734,-0.35,0.0796,-0.583,-0.00499,-0.0712,0.00799,-0.0526
ATAAAAC,0.0175,-0.0218,-0.0807,-0.868,-0.0374,-0.798,0.09,0.0795,-0.0133,0.0052
ATCTAGT,-1.39,-0.281,-0.293,-0.657,0.108,-0.893,-3.13,0.00814,-0.0144,0.0101
TGGCCAA,-0.0723,0.0779,0.453,0.889,-0.0653,0.865,0.0813,0.0258,0.126,0.165
CGACGCT,-0.0869,-0.0794,-0.126,0.0197,-0.074,0.581,-0.101,-0.181,-0.115,-0.0229
TGAGGAA,-0.0666,-0.0502,0.275,1.25,0.106,1.58,0.0822,-0.0206,-0.0933,-0.0282
CTGGCAC,-0.0636,-0.0786,-0.0162,-0.0403,0.0189,-0.418,0.0285,-0.152,-0.132,-0.174
GTGGGGA,0.0753,-0.0326,0.533,1.09,-0.0285,1.75,0.0914,-0.0712,-0.0584,0.0182
GAGGGCA,0.0165,0.0976,0.836,1.78,0.00226,2.08,0.25,0.0436,0.0814,0.0629
CGATTGC,0.0575,0.0901,-0.472,-0.177,0.0124,-0.814,0.178,-0.0602,0.0463,0.0801
ACAATCC,-0.000128,0.031,-0.2,-0.227,0.0291,-0.48,0.137,0.00442,-0.0983,0.0445
TCAGACG,0.0935,0.0712,-0.631,-0.69,0.0522,-1.04,0.224,0.000939,0.0435,-0.106
TGCGGGT,0.0669,0.0608,-0.0706,-0.194,0.0459,0.00346,0.105,-0.0132,0.0129,-0.0451
TGTACGC,0.0329,0.0957,0.189,-0.0344,0.0567,-0.156,0.0664,0.0293,0.0609,0.0468
AGATTGA,0.0341,0.0312,-0.146,0.303,-0.0407,-0.0836,-0.0145,0.0501,0.0396,0.0245
GTACGCC,-0.0132,-0.0147,0.262,0.532,-0.043,0.878,-0.0388,-0.104,-0.0284,0.0201
CCTGCCG,0.0437,-0.00267,-0.817,-0.295,0.00199,-0.949,0.136,0.0349,-0.0809,-0.11
GTTTGTT,-1.64,0.00292,0.324,0.453,-0.0272,1.44,-2.09,0.18,-0.0157,-0.107
TCAAGCC,-0.0819,-0.118,-0.417,-1.2,-0.0481,-0.543,0.154,-0.071,-0.0914,-0.0814
CCACAGA,0.00113,-0.0732,-0.14,-0.53,0.195,-1.03,0.134,0.108,-0.0777,0.0618
AACGGGA,-0.0966,-0.08,0.434,0.735,-0.0016,1.45,0.112,-0.0275,-0.0639,-0.103
CGGGCTC,0.202,0.00482,0.656,1.12,-0.0479,1.61,0.144,-0.0114,-0.00293,0.00864
ACTATAC,0.129,-0.155,-0.243,-0.831,-0.0444,-0.882,-0.021,0.0489,-0.0963,-0.0399
CTACTCT,-0.0486,-0.0945,-0.42,-2.78,-0.124,-0.712,-0.223,-0.0632,-0.0231,-0.124
CTACGAC,0.0291,-0.0395,0.0445,-1.08,0.0433,-0.497,0.106,-0.018,-0.0585,-0.0911
